# The other results are listed elsewhere or left out. Single values are uncertain, as repeats are few or missing.
# System: RVH-421
# Test: cell count relative to DMSO control; melanoma cells; higher = more viable cells
# Details: library dose: low library concentration; 72 h
# 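Note: cell number obtained by counting DAPI-stained nuclei in high-throughput microscope images with image analysis software, screen run in 1,536-well plates.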
row,SMILES,cell count [%]
1,"C[C@]12O[C@H](C[C@]1(O)CO)n1c3ccccc3c3c4c(c5c6ccccc6n2c5c31)CNC4=O [Lestaurtinib] + OCc1c[nH]c2ccccc12 [Indole-3-carbinol] (first compound 0.004 µM, partner dose 0.8 µM)",113
2,"C[C@]12O[C@H](C[C@]1(O)CO)n1c3ccccc3c3c4c(c5c6ccccc6n2c5c31)CNC4=O [Lestaurtinib] + CO[C@H]1C[C@@H]2CC[C@@H](C)[C@@](O)(O2)C(=O)C(=O)N2CCCC[C@H]2C(=O)O[C@H]([C@H](C)C[C@@H]2CC[C@@H](OCCO)[C@H](OC)C2)CC(=O)[C@H](C)/C=C(\C)[C@@H](O)[C@@H](OC)C(=O)[C@H](C)C[C@H](C)/C=C/C=C/C=C/1C [everolimus] (first compound 0.004 µM, partner dose 0.02 µM)",73.8
3,"C[C@]12O[C@H](C[C@]1(O)CO)n1c3ccccc3c3c4c(c5c6ccccc6n2c5c31)CNC4=O [Lestaurtinib] + Cn1c(=O)n(-c2ccc(C(C)(C)C#N)cc2)c2c3cc(-c4cnc5ccccc5c4)ccc3ncc21 [NVP-BEZ235] (first compound 0.004 µM, partner dose 0.004 µM)",88.4
4,"C[C@]12O[C@H](C[C@]1(O)CO)n1c3ccccc3c3c4c(c5c6ccccc6n2c5c31)CNC4=O [Lestaurtinib] + Nc1ccn([C@@H]2O[C@H](CO)[C@@H](O)C2(F)F)c(=O)n1 [gemcitabine] (first compound 0.004 µM, partner dose 0.0004 µM)",91
5,"Cn1cc(C2=C(c3cn(C4CCN(Cc5ccccn5)CC4)c4ccccc34)C(=O)NC2=O)c2ccccc21 [Enzastaurin] + CO[C@H]1C[C@@H]2CC[C@@H](C)[C@@](O)(O2)C(=O)C(=O)N2CCCC[C@H]2C(=O)O[C@H]([C@H](C)C[C@@H]2CC[C@@H](OCCO)[C@H](OC)C2)CC(=O)[C@H](C)/C=C(\C)[C@@H](O)[C@@H](OC)C(=O)[C@H](C)C[C@H](C)/C=C/C=C/C=C/1C [everolimus] (first compound 0.8 µM, partner dose 0.02 µM)",80.3
6,"C[C@]12O[C@H](C[C@]1(O)CO)n1c3ccccc3c3c4c(c5c6ccccc6n2c5c31)CNC4=O [Lestaurtinib] + Nc1cccc2c1CN(C1CCC(=O)NC1=O)C2=O [lenalidomide] (first compound 0.004 µM, partner dose 1 µM)",102
7,"C[C@]12O[C@H](C[C@]1(O)CO)n1c3ccccc3c3c4c(c5c6ccccc6n2c5c31)CNC4=O [Lestaurtinib] + CN(c1ncccc1CNc1nc(Nc2ccc3c(c2)CC(=O)N3)ncc1C(F)(F)F)S(C)(=O)=O [PF562271] (first compound 0.004 µM, partner dose 0.08 µM)",100
8,"C[C@]12O[C@H](C[C@]1(O)CO)n1c3ccccc3c3c4c(c5c6ccccc6n2c5c31)CNC4=O [Lestaurtinib] + CC(=O)O[C@@]12CO[C@@H]1C[C@H](O)[C@@]1(C)C(=O)[C@H](O)C3=C(C)[C@@H](OC(=O)[C@H](O)[C@@H](NC(=O)OC(C)(C)C)c4ccccc4)C[C@@](O)([C@@H](OC(=O)c4ccccc4)[C@H]21)C3(C)C [Docetaxel] (first compound 0.004 µM, partner dose 0.0001 µM)",83.9
9,"C[As](C)SC[C@H](NC(=O)CC[C@H](N)C(=O)O)C(=O)NCC(=O)O [Darinaparsin] + O=C(Nc1ccccc1)c1cc([N+](=O)[O-])ccc1Cl [GW9662] (first compound 0.4 µM, partner dose 2 µM)",99.5
10,"C[As](C)SC[C@H](NC(=O)CC[C@H](N)C(=O)O)C(=O)NCC(=O)O [Darinaparsin] + Cc1cc(SCc2sc(-c3ccc(C(F)(F)F)c(F)c3)nc2C)ccc1OCC(=O)O [GW0742] (first compound 0.4 µM, partner dose 2 µM)",103
11,"C[C@]12O[C@H](C[C@]1(O)CO)n1c3ccccc3c3c4c(c5c6ccccc6n2c5c31)CNC4=O [Lestaurtinib] + CCCS(=O)(=O)Nc1ccc(F)c(C(=O)c2c[nH]c3ncc(Cl)cc23)c1F [PLX4720] (first compound 0.004 µM, partner dose 0.08 µM)",96.4

# Source: the supplement of paper PMC4604168 (melanoma cell lines)
